The list shows a part of the results.
B1: PhoQ; a variant is named by its letters at X, in order, P23837 (parent)
chain: MKKLLRLFFPLSLRVRFLLATAAVVLVLSLAYGMVALIGYSVSFDKTTFRLLRGESNLFYTLAKWENNKLHVELPENIDKQSPTMTLIYDENGQLLWAQRDVPWLMKMIQPDWLKSNGFHEIEADVNDTSLLLSGDHSIQQQLQEVREDDDDAEMTHSVAVNVYPATSRMPKLTIVVVDTIPVELKSSYMVWSWFIYVLSANLLLVIPLLWVAAWWSLRPIEALAKEVRELEEHNRELLNPATTRELTSLVRNLNRLLKSERERYDKYRTTLTDLTHSLKTPLXXLQXXLRSLRSEKMSVSDAEPVMLEQISRISQQIGYYLHRASMRGGTLLSRELHPVAPLLDNLTSALNKVYQRKGVNISLDISPEISFVGEQNDFVEVMGNVLDNACKYCLEFVEISARQTDEHLYIVVEDDGPGIPLSKREVIFDRGQRVDTLRPGQGVGLAVAREITEQYEGKIVAGESMLGGARMEVIFGRQHSAPKDE

Variants of: B1
Test: enrichment ratio after two sorts for PhoP signalling (ratio (wild type AVST 3.29)); higher = more functional
Settings: with PhoP (E. coli)

| Variant | enrichment ratio |
| --- | --- |
| MQRW | ≤ 0.25 |
| NIIH | ≤ 0.25 |
| ADYG | ≤ 0.25 |
| MSAP | ≤ 0.25 |
| TAEA | ≤ 0.25 |
| PAEP | ≤ 0.25 |
| LLAF | ≤ 0.25 |
| STMM | 18.6 |
| PTWP | ≤ 0.25 |
| EVIW | ≤ 0.25 |
| YRNH | ≤ 0.25 |
| VRNR | ≤ 0.25 |
| VHNG | ≤ 0.25 |
| AKYW | ≤ 0.25 |
| VMMM | ≤ 0.25 |
| FEVR | ≤ 0.25 |
| ESGN | ≤ 0.25 |
| DNGM | ≤ 0.25 |
| PAGR | ≤ 0.25 |
| PLNC | ≤ 0.25 |
| DDST | 2.65 |
| YLHL | ≤ 0.25 |
| YWYC | ≤ 0.25 |
| VCHV | ≤ 0.25 |
| SPMI | ≤ 0.25 |

| Variant | enrichment ratio |
| --- | --- |
| RPYV | ≤ 0.25 |
| YHYY | ≤ 0.25 |
| LGHA | ≤ 0.25 |
| RRCA | ≤ 0.25 |
| IFKN | ≤ 0.25 |
| WFRC | ≤ 0.25 |
| YQLI | ≤ 0.25 |
| ARNP | ≤ 0.25 |
| SICH | 10.3 |
| TMIN | ≤ 0.25 |
| QWAL | ≤ 0.25 |
| LGIN | ≤ 0.25 |
| AIWR | ≤ 0.25 |
| TTQD | ≤ 0.25 |
| RDNG | ≤ 0.25 |
| SIID | ≤ 0.25 |
| MHIN | ≤ 0.25 |
| QDHK | ≤ 0.25 |
| PYAG | ≤ 0.25 |
| LRDI | ≤ 0.25 |
| PMTY | ≤ 0.25 |
| QPCP | ≤ 0.25 |
| FNEE | ≤ 0.25 |
| YPVR | ≤ 0.25 |
| AYSW | ≤ 0.25 |

| Variant | enrichment ratio |
| --- | --- |
| KKMF | ≤ 0.25 |
| AIAR | 19.7 |
| YPMT | ≤ 0.25 |
| IFNW | ≤ 0.25 |
| DRDL | ≤ 0.25 |
| VDDH | ≤ 0.25 |
| QRWC | ≤ 0.25 |
| AQCD | 42.7 |
| MDYW | ≤ 0.25 |
| DYDI | ≤ 0.25 |
| YNVG | ≤ 0.25 |
| HVTW | ≤ 0.25 |
| LYPV | ≤ 0.25 |
| FWID | ≤ 0.25 |
| RCVM | ≤ 0.25 |
| RHVF | ≤ 0.25 |
| QFSP | 0.575 |
| SKRG | ≤ 0.25 |
| EHQL | ≤ 0.25 |
| HDVM | ≤ 0.25 |
| IHSM | ≤ 0.25 |
| KSYQ | ≤ 0.25 |
| REWN | ≤ 0.25 |
| DPQN | ≤ 0.25 |
| NQCW | ≤ 0.25 |

| Variant | enrichment ratio |
| --- | --- |
| EFYG | ≤ 0.25 |
| TTAM | 17.5 |
| WFTY | ≤ 0.25 |
| TYYN | ≤ 0.25 |
| DKRP | ≤ 0.25 |
| LCQS | ≤ 0.25 |
| NNSR | ≤ 0.25 |
| TCRV | 1.29 |
| YKVI | ≤ 0.25 |
| LRIM | ≤ 0.25 |
| VVFS | ≤ 0.25 |
| TIEG | 11.8 |
| DTSQ | ≤ 0.25 |
| KMNP | ≤ 0.25 |
| LNFN | ≤ 0.25 |
| PSAD | ≤ 0.25 |
| VPGH | ≤ 0.25 |
| QLPT | ≤ 0.25 |
| YVHW | ≤ 0.25 |
| YRDP | ≤ 0.25 |
| FCPI | ≤ 0.25 |
| VPGQ | ≤ 0.25 |
| VAKW | ≤ 0.25 |
| WKHS | ≤ 0.25 |
| TGGV | 4.98 |

| Variant | enrichment ratio |
| --- | --- |
| DHHF | ≤ 0.25 |
| AEDV | ≤ 0.25 |
| HCIF | ≤ 0.25 |
| PQHV | ≤ 0.25 |
| TILS | 1.41 |
| MILQ | 14 |
| EFIE | ≤ 0.25 |
| LLNC | ≤ 0.25 |
| PRRT | ≤ 0.25 |
| NFKV | ≤ 0.25 |
| YVVC | ≤ 0.25 |
| EADL | ≤ 0.25 |
| EFQF | ≤ 0.25 |
| YLTT | ≤ 0.25 |
| YIAP | ≤ 0.25 |
| VSPD | ≤ 0.25 |
| SCNG | 2.01 |
| TFEE | ≤ 0.25 |
| WRCR | ≤ 0.25 |
| WSYL | ≤ 0.25 |
| DQRS | ≤ 0.25 |
| NVPF | ≤ 0.25 |
| KMWA | ≤ 0.25 |
| EHSI | ≤ 0.25 |
| RVGA | ≤ 0.25 |

| Variant | enrichment ratio |
| --- | --- |
| GSEL | ≤ 0.25 |
| YNDK | ≤ 0.25 |
| HRGE | ≤ 0.25 |
| QRPE | ≤ 0.25 |
| WRYR | ≤ 0.25 |
| DIAR | ≤ 0.25 |
| THFM | ≤ 0.25 |
| RKGT | ≤ 0.25 |
| QTMV | ≤ 0.25 |
| TWRG | ≤ 0.25 |
| FKKE | ≤ 0.25 |
| RPYR | ≤ 0.25 |
| SWEW | ≤ 0.25 |
| AGQP | ≤ 0.25 |
| HITV | ≤ 0.25 |
| FFRW | ≤ 0.25 |
| DEGG | ≤ 0.25 |
| NSWC | ≤ 0.25 |
| VSWC | ≤ 0.25 |
| KHRT | ≤ 0.25 |
| WHRP | ≤ 0.25 |
| SLIE | ≤ 0.25 |
| MNWY | ≤ 0.25 |
| FTKP | ≤ 0.25 |
| LVDC | ≤ 0.25 |

| Variant | enrichment ratio |
| --- | --- |
| FYCT | ≤ 0.25 |
| QRHH | ≤ 0.25 |
| WDND | ≤ 0.25 |
| ESYF | ≤ 0.25 |
| PQFL | ≤ 0.25 |
| CGHH | ≤ 0.25 |
| ICMF | ≤ 0.25 |
| HWHH | ≤ 0.25 |
| HLWR | ≤ 0.25 |
| GNTM | 1.94 |
| FMTW | ≤ 0.25 |
| MPGW | ≤ 0.25 |
| WGGK | ≤ 0.25 |
| FVMN | 0.972 |
| HNPG | ≤ 0.25 |
| AEVC | 14.6 |
| WTHN | ≤ 0.25 |
| MQVW | ≤ 0.25 |
| DYTM | ≤ 0.25 |
| KGAC | ≤ 0.25 |
| VCCW | ≤ 0.25 |
| RYES | ≤ 0.25 |
| PSRC | ≤ 0.25 |
| IHDC | ≤ 0.25 |
| VGPL | ≤ 0.25 |

| Variant | enrichment ratio |
| --- | --- |
| QESQ | ≤ 0.25 |
| ANDR | ≤ 0.25 |
| NTAD | ≤ 0.25 |
| DAQG | ≤ 0.25 |
| IVPM | ≤ 0.25 |
| YTCE | ≤ 0.25 |
| RALI | ≤ 0.25 |
| ILLD | ≤ 0.25 |
| YCMP | ≤ 0.25 |
| GDWC | ≤ 0.25 |
| SIQS | 2.2 |
| QPTS | ≤ 0.25 |
| YYTG | ≤ 0.25 |
| AHTL | 6.56 |
| PWIL | ≤ 0.25 |
| HKLW | ≤ 0.25 |
| FHAG | ≤ 0.25 |
| DYQD | ≤ 0.25 |
| KVLK | ≤ 0.25 |
| FESM | 1.67 |
